This is an account of results in the supplement of paper PMC5998384.

Data set [1] concerns HeLa Kyoto. The data set is described as follows: solubility in G1/S (NP-40 vs SDS abundance) (log2 ratio); higher = more soluble. The note with it: cell cycle stage: G1/S.
Data set [2] relates to HeLa Kyoto. The data set can be described thus: melting temperature (median over replicates), in situ; higher = more thermally stable.
In data set [3] the test system is HeLa Kyoto. The data set is described as follows: solubility change mitosis vs G1/S (difference of NP-40 vs SDS log2 ratios) (log2 ratio difference); higher = more soluble in mitosis.
Data set [4] relates to HeLa Kyoto. The data set can be described thus: thermal stability score vs G1/S (z-score of summed log2 fold changes over temperatures); higher = more thermally stable than in G1/S.
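Wherever melting temperature (median over replicates), in situ is given: HeLa Kyoto cells synchronized by double thymidine or nocodazole block, proteins quantified by TMT10plex mass spectrometry, three independent biological replicates.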
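Wherever solubility change mitosis vs G1/S (difference of NP-40 vs SDS log2 ratios) is given: synchronized HeLa Kyoto cells (double thymidine block for G1/S, nocodazole release for mitosis), protein amounts in NP-40 versus SDS lysates quantified by mass spectrometry, three biological replicates.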
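Wherever solubility in G1/S (NP-40 vs SDS abundance) is given: HeLa Kyoto cells arrested at G1/S by double thymidine block, proteins quantified by TMT10plex mass spectrometry in mild NP-40 versus SDS extracts, three biological replicates.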
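Wherever thermal stability score vs G1/S (z-score of summed log2 fold changes over temperatures) is given: synchronized HeLa Kyoto cells, proteins quantified by TMT10plex mass spectrometry, three biological replicates, mitosis taken 0.5 h after nocodazole release, G1/S directly after double thymidine block.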

In the case of GOLGA7 (sequence left out), the “solubility in G1/S (log2)” value in data set [1] was -0.29. The figures for the melting temperature in data set [2] (cell cycle stage: G1/S) and in data set [2] (cell cycle stage: mitosis) were 55.9 °C and 56.1 °C, respectively. The “solubility change mitosis (log2)” value in data set [3] worked out at 0.00572. The thermal stability score in data set [4] (cell cycle stage: early G1 (4.5 h after nocodazole release)) came to 0.542; in data set [4] (cell cycle stage: mitosis), 0.782.

For the substance PEA15 (sequence left out), the “solubility in G1/S (log2)” value in data set [1] is -0.0118. Also, the melting temperature stood at 51.8 °C in data set [2] (cell cycle stage: G1/S) and 51.1 °C in data set [2] (cell cycle stage: mitosis). The “solubility change mitosis (log2)” value in data set [3] was found to be 0.0788.
